# Reference: publication PMC10903983, “Inducing mitochondriopathy-like damages by transformable nucleopeptide nanoparticles for targeted therapy of bladder cancer” (National Science Review, 2024)
# Tested on: T24 xenograft mice
# Experiment: In vivo antitumor evaluation with SN-38 and T-ATP controls, T24 xenograft
# Settings: 24 days post-injection; SN38 5 mg/kg; T-ATP and NLS-FF-T 500 μM in 200 μL PBS
# Protocol: Fig. S23. (a) Average tumor growth curves of T24 xenograft mice after treated with PBS, SN38 (5 mg/kg),
# (b) Body weights of T24 xenograft mice after different
# (1 picture or pasted object on this page, not shown here)
smiles,measurement,value
"CCc1c2c(nc3ccc(O)cc13)-c1cc3c(c(=O)n1C2)COC(=O)[C@]3(O)CC [SN38, SN-38]",tumor growth / antitumor efficacy,moderate antitumor efficacy
